From PubChem BioAssay (Tox21)
Several values for one entry are separate records, joined by “and”; a condition that tells them apart may be missing. Equal values may be shown once. A structure can be active in one record and inactive in another. Activity calls are given as the source filed them. The call rests on the fitted dose curve; in most records, active means well fitted activation curve with a large enough effect in the signal ratio in the repeat runs (not every such curve was filed as active); inconclusive means weak or mixed curves, or effect the other way; inactive means no such curve, though single readings can be large or run the other way; the % refers to the signal ratio. *1 amine or outer side, *2 acyl side, *3 side chain or, on linkers, in order; H or OH if unused. Where a SMILES comes first, the peptide text is derived from it. Bridges are numbered along the chain shown (N, C = ends). Roman numbers before positions name the chains, in order. [ ]: non-standard residue; d: D form. Actinocin(9to1) = Cc1c2oc3c(C)ccc(C(=O)[*:1])c3nc-2c(C(=O)[*:2])c(N)c1=O; NMeV = CN[C@H](C(=O)O)C(C)C; Sar = CNCC(=O)O
On the % scale 0 is the no-effect control and ±100 the full control effect; potency means the concentration at half of the fitted maximal effect; tags describe the fitted curve by direction and shape or compound fluorescence and quenching.

These compounds were tested against Glucocorticoid receptor (Homo sapiens) (UniProt P04150) (assay: qHTS assay to identify small molecule agonists of the glucocorticoid receptor (GR) signaling pathway (AID 720691)). Conditions: GR-bla HeLa, beta-lactamase reporter ratio, 18 h; activation: at 62.4 µM (top of the series) unless noted.
Chain of UniProt P04150 (P04150 whole entry, looked up): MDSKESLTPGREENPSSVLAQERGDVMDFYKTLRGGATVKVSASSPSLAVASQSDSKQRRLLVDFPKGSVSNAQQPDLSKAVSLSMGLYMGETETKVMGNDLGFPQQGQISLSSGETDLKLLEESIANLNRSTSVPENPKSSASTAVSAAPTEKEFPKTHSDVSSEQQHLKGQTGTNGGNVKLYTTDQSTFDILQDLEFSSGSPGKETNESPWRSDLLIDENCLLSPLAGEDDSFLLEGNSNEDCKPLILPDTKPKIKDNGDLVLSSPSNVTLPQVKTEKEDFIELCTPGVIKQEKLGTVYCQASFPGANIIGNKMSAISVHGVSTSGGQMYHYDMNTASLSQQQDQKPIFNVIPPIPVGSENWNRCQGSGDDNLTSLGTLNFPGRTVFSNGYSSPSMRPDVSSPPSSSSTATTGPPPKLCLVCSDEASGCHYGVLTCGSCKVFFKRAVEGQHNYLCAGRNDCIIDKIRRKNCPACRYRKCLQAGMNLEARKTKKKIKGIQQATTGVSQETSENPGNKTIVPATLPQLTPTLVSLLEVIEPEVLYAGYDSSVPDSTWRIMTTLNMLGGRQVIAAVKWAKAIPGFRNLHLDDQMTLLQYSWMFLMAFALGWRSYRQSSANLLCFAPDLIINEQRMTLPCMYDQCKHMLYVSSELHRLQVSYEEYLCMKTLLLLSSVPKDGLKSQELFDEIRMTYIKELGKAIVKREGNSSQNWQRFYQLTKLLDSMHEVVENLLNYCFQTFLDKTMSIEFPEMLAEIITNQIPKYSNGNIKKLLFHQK
Source text: U.S. Tox21 Program National Center for Advancing Translational Sciences [NCATS] NIH Chemical Genomics Center [NCGC] U.S. Environmental Protection Agency [EPA] National Institutes of Environmental Health Sciences [NIEHS] National Toxicology Program [NTP] U.S. Food and Drug Administration [FDA] Tox21 Assay Overview: The Glucocorticoid receptor (GR) is one of the members of the nuclear receptor family of ligand-dependent transcription factors. GR plays a critical role in carbohydrate, protein and lipid metabolisms and programmed cell death. CellSensor GR-bla HeLa cell line (Invitrogen) contains a beta-lactamase reporter gene under the control of the glucocorticoid response element stably integrated into HeLa cells, a cervical cancer cell line that expresses glucocorticoid receptor. The activation of the reporter gene under culture conditions can be detected by fluorescence intensity. This cell line has been used to screen the Tox21 10K compound library and to identify the compounds that activate the GR signaling.
Tox21 Assay Protocol Summary: The GR-bla HeLa cells were dispensed at 1500 cells/6 ul/well in 1536-well black wall/clear bottom plates using a Multidrop Combi (ThermoFisher Scientific, Waltham, MA) dispenser. After the assay plates were incubated at a 37 C/5% CO2 incubator for 4 hours, 23 nL of compounds dissolved in DMSO, positive controls or DMSO only was transferred to the assay plate by a pintool station (Kalypsys, San Diego, CA). The plates were incubated at 37 C for 18 hours. After 1 uL of LiveBLAzerTM B/G FRET substrate was added using a Flying Reagent Dispenser (Aurora Discovery, San Diego, CA), the plates were incubated at room temperature for 2 hours, and fluorescence intensity was measured by an Envision plate reader (PerkinElmer, Shelton, CT).
In the case of O=C(O)CCCCCCC(=O)O, the Potency is reported as “inactive”.
CC(C)(C)NC(=O)[C@@H]1CN(Cc2cccnc2)CCN1C[C@@H](O)C[C@@H](Cc1ccccc1)C(=O)N[C@H]1c2ccccc2C[C@H]1O was tested, and the Potency was inconclusive: 26.8 µM [cytotoxic].
With CC(C)(C)NCC(O)c1ccc(O)c(CO)c1 (stereo not given) the Potency was “inactive”.
In the case of CCCCCCOCCOCCO, the Potency is reported as “inactive”.
With Nc1ccc(Oc2ccc(Cl)cc2)cc1 the activation was inconclusive: -12.1%.
For CC(=O)Oc1ccc(C2(c3ccc(OC(C)=O)cc3)Oc3ccccc3NC2=O)cc1, the activation was inconclusive: -16.8%.
C/C=C(\C)C(=O)OC/C=C(\C)CCC=C(C)C was tested, and the Potency was “inactive”.
In the case of Cc1cc(C2CCCCC2)n(O)c(=O)c1, the Potency is reported as inconclusive: 6.44 µM [single point].
Oc1ccc(C(c2ccc(O)cc2)C(Cl)(Cl)Cl)cc1 was tested, and the Potency was inconclusive: 61.4 µM [cytotoxic, single point] and inconclusive: 54.9 µM [single point].
For CCCCCCCCC(CCCCCC)C(=O)O (stereo not given), the activation was inconclusive: -11.3%.
In the case of CN(C)C(=O)Oc1ccc[n+](C)c1, the Potency is reported as active: 26.8 µM.
For O=C(Nc1cccc([N+](=O)[O-])c1)c1cc2ccccc2cc1O, the Potency was inconclusive: 30.9 µM [falling, partial curve, poor fit].
For C=C(CC)C(=O)c1ccc(OCC(=O)O)c(Cl)c1Cl, the Potency was inconclusive: 30.1 µM.
In the case of Clc1ccc2nsnc2c1NC1=NCCN1, the Potency is reported as inconclusive: 8.49 µM [rising, partial curve].
NS(=O)(=O)c1cc(C(=O)O)cc(N2CCCC2)c1Oc1ccccc1 was tested, and the Potency was active: 9.1 µM.
With CCN(CC)CCOc1ccc(Cc2ccccc2)cc1 the Potency was inconclusive: 30.1 µM [cytotoxic, single point].
For CCCCCCCCCCCC[N+](C)(C)CCCCCCCCCCCC, the Potency was inconclusive: 19.5 µM [cytotoxic, full curve].
For CNCCCC12CCC(c3ccccc31)c1ccccc12, the Potency was inconclusive: 61.6 µM [cytotoxic, single point].
O=C(O)c1cc(=O)[nH]c(=O)[nH]1 was tested, and the Potency was “inactive”.
In the case of C1CCC(C(CC2CCCCN2)C2CCCCC2)CC1 (stereo not given), the Potency is reported as inconclusive: 13.4 µM [cytotoxic, full curve].
For CC(=O)NC1(c2cccc(F)c2)CCN(CC[C@@]2(c3ccc(Cl)c(Cl)c3)CN(c3ccccc3)C(=O)CO2)CC1, the Potency was inconclusive: 49.1 µM [cytotoxic].
Nc1ccccc1N was tested, and the Potency was inconclusive: 54.9 µM [partial curve, poor fit].
With CCCCCCCCCC=O the Potency was “inactive”.
In the case of CCCCCCCCCCCCCC[n+]1ccccc1, the Potency is reported as inconclusive: 17.4 µM [cytotoxic].
CN(C)c1ccc(C2(c3ccc(N(C)C)cc3)OC(=O)c3cc(N(C)C)ccc32)cc1 was tested, and the Potency was active: 4.35 µM [inconclusive].
CCCCN(CCCC)c1ccc(C(=O)c2ccccc2C(=O)O)c(O)c1 was tested, and the Potency was inconclusive: 62.2 µM [cytotoxic, single point].
With CCC(C)(C)C(=O)O[C@H]1C[C@@H](C)C=C2C=C[C@H](C)[C@H](CC[C@@H]3C[C@@H](O)CC(=O)O3)[C@H]21 the Potency was active: 6.44 µM.
With Cc1c2oc3c(C)ccc(C(=O)N[C@@H]4C(=O)N[C@H](C(C)C)C(=O)N5CCC[C@H]5C(=O)N(C)CC(=O)N(C)[C@@H](C(C)C)C(=O)O[C@@H]4C)c3nc-2c(C(=O)N[C@@H]2C(=O)N[C@H](C(C)C)C(=O)N3CCC[C@H]3C(=O)N(C)CC(=O)N(C)[C@@H](C(C)C)C(=O)O[C@@H]2C)c(N)c1=O (I: T[dV]P[Sar][NMeV] / II: T[dV]P[Sar][NMeV]; ester I:1-I:C, II:1-II:C; linker I:N-II:N via Actinocin(9to1)) the Potency was inconclusive: 0.134 µM [inhibitor, full curve] and the activation was inconclusive: -15.3%.
In the case of COc1ccccc1N1CCN(CC(O)COc2cccc3ccccc23)CC1 (stereo not given), the Potency is reported as “inactive”.
In the case of CC(C)C[C@H](NC(=O)[C@H](CCc1ccccc1)NC(=O)CN1CCOCC1)C(=O)N[C@@H](Cc1ccccc1)C(=O)N[C@@H](CC(C)C)C(=O)[C@@]1(C)CO1, the Potency is reported as inconclusive: 0.0535 µM [rising, full curve, poor fit].
In the case of Oc1c(I)cc(Cl)c2cccnc12, the Potency is reported as inconclusive: 7.75 µM [rising, full curve, poor fit] and the activation is reported as inconclusive: -12.5%.
For O=C(Nc1ccc(Cl)c(Cl)c1)c1cc(Cl)cc(Cl)c1O, the activation was active: 11.6% [inconclusive].
For CSC(=O)c1cccc2nnsc12, the activation was inconclusive: -10.6%.
With CCCCCCCC/C=C\CCCCCCCCCCCC(=O)O the Potency was inconclusive: 17.7 µM [activator, partial curve].
C1CCCC1 was tested, and the Potency was inconclusive: 30.2 µM [activator, partial curve].
With O=C1CCc2ccc(OCCCCN3CCN(c4cccc(Cl)c4Cl)CC3)cc2N1 the Potency was “inactive”.
For O=C(O)c1cc(O)c2ccccc2c1O, the Potency was inconclusive: 21.9 µM [inhibitor, single point].
CC[C@]1(O)C[C@@H]2CN(CCc3c([nH]c4ccccc34)[C@@](C(=O)OC)(c3cc4c(cc3OC)N(C)[C@H]3[C@@](O)(C(=O)OC)[C@H](OC(C)=O)[C@]5(CC)C=CCN6CC[C@]43[C@@H]65)C2)C1 was tested, and the activation was inconclusive: -0.715% [phenotype inactive].
